One may read the Kd as a measure of binding affinity in units of concentration. Low readings indicate tighter binding, high ones weaker binding. In general, EC50 (read off the curve) refers to the concentration that produces a half-maximal response.

Consider two molecules from patent US20260265384A1 (JOINT STOCK COMPANY BIOCAD, published 2026).

Assay [1] addresses T1, cynomolgus (Macaca fascicularis) AXL (cynomolgus (Macaca fascicularis), UniProt A0A2K5WXE0 26-451).
T1 construct: also called monkey AXL antigen
T1 sequence: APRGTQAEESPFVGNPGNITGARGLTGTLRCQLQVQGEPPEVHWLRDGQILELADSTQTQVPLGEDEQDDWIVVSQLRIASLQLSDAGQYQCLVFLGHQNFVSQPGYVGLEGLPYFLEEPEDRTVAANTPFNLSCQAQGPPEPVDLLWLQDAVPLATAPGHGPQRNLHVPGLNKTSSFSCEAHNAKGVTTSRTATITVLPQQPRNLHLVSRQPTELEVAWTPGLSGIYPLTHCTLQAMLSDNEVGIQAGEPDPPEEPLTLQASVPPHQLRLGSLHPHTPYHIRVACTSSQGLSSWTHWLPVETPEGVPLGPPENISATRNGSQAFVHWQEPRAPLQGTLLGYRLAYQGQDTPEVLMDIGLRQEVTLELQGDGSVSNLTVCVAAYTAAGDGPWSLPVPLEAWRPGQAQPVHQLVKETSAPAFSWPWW
Description: SPR, Biacore 8K, antigen immobilised on CM5 chip, antibody in solution; mean value. Here is the method: (§1) Constants of binding of antibody 01_004 to various antigens were determined by SPR (surface plasmon resonance) using Biacore 8K (Cytiva). The test antigen was immobilized on Sensor Chip CM5 (Cytiva), followed by analysis of binding thereof to anti-AXL antibody 01_004 in PBS 0.02% Tween-20 pH 7.4. Measurement data was processed using the Biacore Insight Evaluation (Cytiva) software.

Assay [2] deals with rabbit (Oryctolagus cuniculus) AXL (rabbit (Oryctolagus cuniculus)). The description is as above. As for the experimental part:
as §1

Assay [3] has as its target T2, Human AXL (human, UniProt P30530 26-449, limits assumed).
T2 construct: also called human AXL antigen
T2 sequence (looked up): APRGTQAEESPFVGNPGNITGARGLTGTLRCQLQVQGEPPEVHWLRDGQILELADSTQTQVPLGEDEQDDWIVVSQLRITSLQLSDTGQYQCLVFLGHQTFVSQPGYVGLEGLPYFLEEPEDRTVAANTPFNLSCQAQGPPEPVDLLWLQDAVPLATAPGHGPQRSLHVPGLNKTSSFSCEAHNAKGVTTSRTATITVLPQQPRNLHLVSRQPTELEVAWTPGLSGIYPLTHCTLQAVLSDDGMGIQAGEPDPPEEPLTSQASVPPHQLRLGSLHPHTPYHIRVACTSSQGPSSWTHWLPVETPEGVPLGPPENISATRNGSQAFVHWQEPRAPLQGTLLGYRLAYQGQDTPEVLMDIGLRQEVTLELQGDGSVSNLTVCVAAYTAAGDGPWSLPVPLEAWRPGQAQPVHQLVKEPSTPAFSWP
The description is as above. Here is the method:
as §1

The target in assay [4] is T3, AXL-Ig1, human AXL extracellular domain Ig-like C2-type 1 fused by a linker to IgG1 Fc (human).
T3 chain: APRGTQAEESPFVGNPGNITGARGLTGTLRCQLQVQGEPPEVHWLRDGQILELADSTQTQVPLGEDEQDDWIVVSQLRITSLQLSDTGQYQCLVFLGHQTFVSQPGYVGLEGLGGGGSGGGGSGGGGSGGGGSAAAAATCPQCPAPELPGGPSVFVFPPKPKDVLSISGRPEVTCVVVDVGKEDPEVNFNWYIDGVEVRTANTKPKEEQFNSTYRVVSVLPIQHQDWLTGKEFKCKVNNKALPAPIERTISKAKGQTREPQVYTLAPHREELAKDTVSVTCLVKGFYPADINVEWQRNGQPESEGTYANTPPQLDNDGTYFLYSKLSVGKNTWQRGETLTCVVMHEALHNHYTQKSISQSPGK
Description: ELISA, antigen coated at 1 µg/ml, antibody at 1 µg/ml, anti-human Fab-HRP detection, OD 450 nm with 540 nm correction. Here is the method: (§2) Antigens (ExcAXL, AXL-Ig1, AXL-Ig2, AXL-Ig1-Ig2) were immobilized in wells of a high-absorption 96-well plate. To this end, to the wells of the plate was introduced 100 μl of antigen solution at a concentration of 1 μg/ml in PBS, the plate was incubated for 16 hours at room temperature.
(§3) Next, the liquid was removed from the wells, the wells were washed with 300 μl of washing buffer solution (1×PBS pH 7.3-7.5, 0.05% Tween-20) and 300 μl/well of blocking buffer solution was added (1×PBS with 1% BSA). The plate was incubated for 1 hour at room temperature. Liquid was removed again and the plate was washed. Then, to the wells of the plate were introduced 100 μl of test antibodies at a concentration of 1 μg/ml in a dilution buffer (1×PBS with 0.1% BSA, 0.05% Tween-20). Next, the plate was incubated with antibodies on a thermal shaker for 1 hour at 37° C., 600 rpm. After incubation, liquid was removed, the plate was washed and 100 μl of anti-human Fab-HRP antibodies in a dilution buffer were added. After incubation on a thermal shaker at 37° C. and 600 rpm, the plate was washed for an hour and 100 μl of reaction substrate (0.083 mg/ml TMB, 0.02% H₂O₂) in an acetate buffer solution (0.05M, pH 5.5) was added. The plate was incubated at room temperature for 10-15 minutes. The reaction was stopped by adding 50 μl of 10% H₂SO₄ to each well of the plate. Optical density values were measured at a wavelength of 450 using 540 nm wavelength correction by means of a plate reader.
A general note: An ELISA detects its analyte on a solid surface through an enzyme-linked reagent.

In assay [5] the target is T4, AXL-Ig2, human AXL extracellular domain Ig-like C2-type 2 fused by a linker to IgG1 Fc (human).
T4 chain: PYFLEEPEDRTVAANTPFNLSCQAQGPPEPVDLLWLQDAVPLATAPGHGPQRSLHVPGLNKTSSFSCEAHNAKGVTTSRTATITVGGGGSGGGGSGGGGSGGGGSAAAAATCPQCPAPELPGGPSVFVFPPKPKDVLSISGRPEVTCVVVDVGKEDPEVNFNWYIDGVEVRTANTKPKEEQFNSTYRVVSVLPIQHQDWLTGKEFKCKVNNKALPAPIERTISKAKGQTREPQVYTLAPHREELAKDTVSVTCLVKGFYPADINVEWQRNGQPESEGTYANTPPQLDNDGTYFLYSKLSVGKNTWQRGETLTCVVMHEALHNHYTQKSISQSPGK
The assay is described as above. Here is the method: as §2, §3

The target in assay [6] is T5, AXL-Ig1-Ig2, human AXL extracellular domains Ig-like C2-type 1 and 2 fused by a linker to IgG1 Fc (human).
T5 chain: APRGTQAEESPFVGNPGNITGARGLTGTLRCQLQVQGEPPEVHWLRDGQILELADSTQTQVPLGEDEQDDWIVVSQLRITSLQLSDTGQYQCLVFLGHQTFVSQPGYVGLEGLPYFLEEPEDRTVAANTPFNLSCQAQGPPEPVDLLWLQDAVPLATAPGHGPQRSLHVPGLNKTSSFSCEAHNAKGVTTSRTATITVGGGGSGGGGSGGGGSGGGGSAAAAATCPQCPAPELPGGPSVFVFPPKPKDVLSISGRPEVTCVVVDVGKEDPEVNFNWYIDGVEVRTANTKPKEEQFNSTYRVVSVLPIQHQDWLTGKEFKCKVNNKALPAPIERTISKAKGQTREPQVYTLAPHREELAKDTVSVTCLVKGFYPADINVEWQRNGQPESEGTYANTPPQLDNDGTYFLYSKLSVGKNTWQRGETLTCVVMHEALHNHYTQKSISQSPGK
Described as above. Here is the method:
as §2, §3

The target in assay [7] is T6, mouse (Mus musculus) AXL (mouse (Mus musculus), UniProt Q00993 19-443, limits assumed).
T6 sequence (looked up): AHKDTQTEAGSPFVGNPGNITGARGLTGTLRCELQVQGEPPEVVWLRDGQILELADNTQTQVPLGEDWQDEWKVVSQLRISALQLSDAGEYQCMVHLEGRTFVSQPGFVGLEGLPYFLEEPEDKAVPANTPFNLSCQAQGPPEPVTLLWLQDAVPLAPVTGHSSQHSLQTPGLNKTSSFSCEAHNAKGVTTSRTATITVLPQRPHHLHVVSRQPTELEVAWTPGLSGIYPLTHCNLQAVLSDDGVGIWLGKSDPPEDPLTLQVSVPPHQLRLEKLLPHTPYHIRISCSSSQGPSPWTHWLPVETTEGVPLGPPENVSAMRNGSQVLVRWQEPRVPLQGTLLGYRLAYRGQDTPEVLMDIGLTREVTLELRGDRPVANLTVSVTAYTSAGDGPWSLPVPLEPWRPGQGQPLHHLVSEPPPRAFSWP
As to the kind of experiment: SPR, Biacore 8K, antigen immobilised on CM5 chip, antibody in solution. Here is the method:
as §1
A general note: SPR reads the build-up and loss of mass on a sensor chip optically.

Assay [8] addresses T7, cynoAXL, Cynomolgus AXL receptor fragment comprising all extracellular domains, fused by a linker to His6- … (Cynomolgus macaque (Macaca fascicularis)).
T7 chain: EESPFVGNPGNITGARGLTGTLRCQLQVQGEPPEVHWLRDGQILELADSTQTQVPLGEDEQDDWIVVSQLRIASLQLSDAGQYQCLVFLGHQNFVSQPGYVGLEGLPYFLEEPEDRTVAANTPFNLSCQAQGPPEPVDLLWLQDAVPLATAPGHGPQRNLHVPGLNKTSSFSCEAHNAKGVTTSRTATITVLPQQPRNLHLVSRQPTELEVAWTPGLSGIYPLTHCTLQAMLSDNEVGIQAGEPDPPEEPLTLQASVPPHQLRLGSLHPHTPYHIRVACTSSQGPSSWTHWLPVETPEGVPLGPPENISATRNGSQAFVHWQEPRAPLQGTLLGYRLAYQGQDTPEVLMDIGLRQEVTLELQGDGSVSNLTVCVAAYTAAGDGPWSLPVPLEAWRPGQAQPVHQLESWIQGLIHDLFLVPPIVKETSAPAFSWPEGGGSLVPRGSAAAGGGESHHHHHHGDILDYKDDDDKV
Description: ELISA, antigen coated at 1 µg/ml, antibody titrated, anti-human Fab-HRP detection, OD 450 nm with 540 nm correction. Here is the method:
(§4) Next, the liquid was removed from the wells, the wells were washed with 300 μl of washing buffer solution (1×PBS pH 7.3-7.5, 0.05% Tween-20) and 300 μl/well of blocking buffer solution was added (1×PBS with 1% BSA). The plate was incubated for 1 hour at room temperature. Liquid was removed again and the plate was washed. Next, to wells of the plate was added 100 μl of antibody 01_004_2, at a concentration as shown in the graph, in dilution buffer (1×PBS with 0.1% BSA, 0.05% Tween-20). Next, the plate was incubated with antibodies on a thermal shaker for 1 hour at 37° C., 600 rpm. After incubation, liquid was removed, the plate was washed and 100 μl of anti-human Fab-HRP antibodies in a dilution buffer were added. After incubation on a thermal shaker at 37° C. and 600 rpm, the plate was washed for an hour and 100 μl of reaction substrate (0.083 mg/ml TMB, 0.02% H₂O₂) in an acetate buffer solution (0.05M, pH 5.5) was added. The plate was incubated at room temperature for 10-15 minutes. The reaction was stopped by adding 50 μl of 10% H₂SO₄ to each well of the plate. Optical density values were measured at a wavelength of 450 using 540 nm wavelength correction by means of a plate reader.

The target of assay [9] is T2, Human AXL. The description is as above. As for the experimental part:
as §4

B1: anti-AXL antibody 01_004 (antibody, human IgG1, kappa)
heavy: QVQLVQSGGGVVQPGRSLRLSCAASGFSFSFFGIHWIRQAPGKGLEWVAFTSRDGNDKYYADSVKGRFTISKDNSKNTVYLQMNSLRAEDTAVYYCGRGNLAFDIWGEGTLVTVSS[human IgG1 constant region omitted here]
light: DIVMTQSPDSLTASAGERATINCKSSQSVLLSANQKNYLAWYQQKPGQSPRLLIYWASTRESGVPDRFSGSGSGTDFTLTISNLQPEDAAVYYCHQGYTLPWTFGSGTKVEIKRTVAAPSVFIFPPSDEQLKSGTASVVCLLNNFYPREAKVQWKVDNALQSGNSQESVTEQDSKDSTYSLSSTLTLSKADYEKHKVYACEVTHQGLSSPVTKSFNRGEC
notes: Full-length bivalent IgG1, kappa light chain; the two C-terminal residues GK of the heavy chain are deleted; Made in CHO-K1-S cells in medium with deoxy-2-fluoro-L-fucose; also called candidate 01_004
Take B1: the Kd stood at 0.0528 nM in assay [1], 240 nM in assay [2] and 0.043 nM in assay [3]. The binding result is recorded as “no binding (tested: 1 µg/ml)” in assay [4], “binds” in assay [5], “binds” in [6] and “no binding” in [7].

B2: anti-AXL antibody 01_004_2 (antibody, human IgG1, kappa)
heavy: QVQLVQSGGGVVQPGRSLRLSCAASGFSFSFFGIHWIRQAPGKGLEWVAFTSRDGNDKYYADSVKGRFTISKDNSKNTVYLQMNSLRAEDTAVYYCGRGNLAFDIWGEGTLVTVSSASTKGPSVFPLAPSSKSTSGGTAALGCLVKDYFPEPVTVSWNSGALTSGVHTFPAVLQSSGLYSLSSVVTVPSSSLGTQTYICNVNHKPSNTKVDKRV[human IgG1 Fc with changes omitted here]
light: B1 light
notes: The Fc carries S239D and I332E (EU numbering), and the C-terminal GK is deleted
Take B2: the binding result in [4] is on record as “no binding (tested: 1 µg/ml)”; in assay [5] it was “binds”; in [6], “binds”. The “EC50 (read off the curve)” value in assay [8] and in [9] was around 8 ng/mL each time.
